# In all, about 360,000 compounds went through this assay and about 7,500 (2.1%) were called active. Inconclusive means that the source gave no clear call. Such entries were picked first, then a sample of the others. Calls come from the whole dose curve; as a rule, active = well fitted cell-killing curve with a large enough effect; inconclusive = small, poorly fitted or top-dose-only effect, or effect the other way, or another doubt; inactive = no such curve, though single readings can be large or run the other way. Potencies of inconclusive entries are left out as doubtful fits.
# Experiment: qHTS for induction of synthetic lethality in tumor cells producing 2HG: qHTS for the HT-1080-IDH1KD cell line;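 for activity, negative = toxicity: 0% = DMSO wells and -100% = cell-free medium wells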
# Conditions: HT-1080 IDH1 knockdown viability, ATP luminescence, 48 h; activity, negative = toxicity: at 46.1 µM (top of the series) unless noted
# Procedure, shortened: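 Knockdown cells (IDH1KD HT-1080) received compounds 2 h after plating at 750 cells/well and were kept 48 h at 37 °C in 5% FBS RPMI. A CellTiter-Glo luminescence read gave % activity for curve fitting.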
# Potency is the fitted concentration of half-maximal effect; tags give direction and shape of the fitted curve.
SMILES,Potency,"activity, negative = toxicity"
Cc1ccc(-n2nnnc2C(Cl)c2nnnn2-c2ccc(C)cc2)cc1,"inconclusive [cytotoxic, single point]",–
Cc1cccc(C(=O)N2CCC(=O)N([C@H](COCc3cccc(Cl)c3)Cc3ccccc3)CC2)c1,"inconclusive [cytotoxic, single point]",–
CC/C(=N/NC(=O)c1ccccc1O)c1c(C)[nH]n(-c2ccccc2)c1=O,active: 25.9 µM,–
O=C1CC(=C2c3ccccc3-c3ccccc32)C(=O)N1CCCCN1CCN(c2ccccc2)CC1,–,inconclusive: -35.4% [cytotoxic]
Cc1ccc2c(Cl)c(C(=O)N/N=C/c3cccn3C)sc2c1,"inconclusive [cytotoxic, single point]",–
Cc1nc2c3cc(F)ccc3n(CCN3CCCCC3)c2s1,"inconclusive [cytotoxic, single point]",–
O=c1[nH]nc(Cc2ccc([N+](=O)[O-])cc2)c2ccccc12,"inconclusive [cytotoxic, single point]",–
CCOC(=O)C1(CCOc2ccccc2)CCN(Cc2ccc(OC)c(COC)c2)CC1,active: 13 µM,–
CCOC(=O)Cn1nnc(-c2ccc(SC)cc2)n1,inactive,–
CC(=O)/C=C/c1ccc2ccccc2n1,"inconclusive [cytotoxic, single point]",–
COc1ccc2c(c1)c(/C=N/Nc1nc3ccccc3[nH]1)c(C)n2C,"inconclusive [cytotoxic, single point]",–
COc1ccc(OC)c(S(=O)(=O)N/N=C\c2cn(CC(N)=O)c3ccccc23)c1,"inconclusive [cytotoxic, single point]",–
COc1ccc(NC(=O)COC(=O)c2c3c(nc4ccccc24)CCCC3)cc1,"inconclusive [cytotoxic, single point]",–
CN(C)c1ccc(CC(=O)N2CCCCC2c2cc(C(=O)Nc3ccccc3Cl)no2)cc1 (centres undefined),–,inconclusive: -29.1% [cytotoxic]
CC1=CC(=O)C=C(C)C1=NOc1ccccc1[N+](=O)[O-],inactive,–
O=S(=O)(/N=S1/CC=CCN1S(=O)(=O)c1ccccc1)c1ccccc1 (centres undefined),"inconclusive [cytotoxic, single point]",–
COc1ccc(/C=C2\CCn3c2nc2cc(C(=O)O)ccc2c3=O)cc1,"inconclusive [cytotoxic, single point]",–
COc1cccc(CCNS(=O)(=O)CCNC(=O)c2cccc(OC)c2)c1,inactive,–
CCOc1cc(C)ccc1OCc1nnc(SCC(=O)c2cccc([N+](=O)[O-])c2)n1C,"inconclusive [cytotoxic, single point]",–
Nc1nnnn1/N=C/C(Br)=C/c1ccccc1,active: 9.2 µM,–
O=C(/C=C/c1ccccc1)NC(NC(=S)Nc1cccc(Cl)c1)C(Cl)(Cl)Cl (centres undefined),"inconclusive [cytotoxic, single point]",–
Cc1ccc(S(=O)(=O)Nc2cc(C(=O)NCCN(C)C)ccc2N2CCCCC2)cc1,"inconclusive [cytotoxic, single point]",–
COc1ccc(CCNc2ncnc3c2[nH]c2cc(OC)c(OC)cc23)cc1OC,"inconclusive [cytotoxic, single point]",–
CC(C)(C)c1cc(-c2nc(N)nc(N)n2)c(O)c(C(C)(C)C)c1,"inconclusive [cytotoxic, single point]",–
CCn1c([N+](=O)[O-])nc2c1c(=O)[nH]c(=O)n2C,active: 20.6 µM,–

SMILES,Potency,"activity, negative = toxicity"
CCn1c(CNc2ccc(F)cc2)nnc1SCC(=O)Nc1ccc(OC)cc1,inactive,–
CCCc1nc2ccccc2c(C(=O)OC(C)C(=O)NCc2ccc3c(c2)OCO3)c1CC (centres undefined),inactive,–
CCC(=O)c1cn(/C(=C\C(=O)OC(C)(C)C)CCC(OC)OC)cc1CC,inactive,–
O=C(NCc1nnc(SCC(=O)N2CCCC2)o1)c1ccccc1,inactive,–
CCOC(=O)c1nn(-c2ccc(C)cc2)c(=O)cc1OCC(=O)N1CCN(c2ccccc2)CC1,inactive,–
Cc1[nH]n(-c2ccccc2)c(=O)c1/C=N/NC(=O)c1ccc(O)cc1O,active: 23.1 µM,–
O=C(NC1CCN(Cc2ccccc2)CC1)c1cccc(Br)c1,inactive,–
COc1cc(OC)c2c(-c3cccc(-c4cccc(C)c4)c3)cc(=O)oc2c1,active: 5.8 µM,–
C=CCn1c(=O)c2ccccc2n2c(SCC(=O)NCC)nnc12,inactive,–
COC(=O)C1CC23C=CCN4CCC5(c6ccccc6NC15C2C)C43 (centres undefined),active: 0.731 µM,–
CCOc1ccc(-n2nc3c(SCCN4CCCC4)nnc(C)c3c2C)cc1,"inconclusive [cytotoxic, single point]",–
COc1cc2c(c(OC)c1OC)-c1ccc(SC)c(=O)cc1C(NC(=O)c1ccccc1)CC2 (centres undefined),"inconclusive [cytotoxic, full curve]",–
O=C(Nc1ccc(-n2cccn2)cc1)C1CCCCN1Cc1cccc2cccnc12 (centres undefined),"inconclusive [cytotoxic, single point]",–
CCCc1cc(=O)oc2cc(OC(C)C(=O)NCC3CCC(C(=O)O)CC3)c(Cl)cc12 (centres undefined),"inconclusive [cytotoxic, single point]",–
Cc1ccc(-c2nnc(N3CCN(C(=O)COc4cccc(C)c4)CC3)c3ccccc23)cc1,inactive,–
O=C(O)C(C1CCCCC1)C1(O)CCCC1 (centres undefined),inactive,–
CSc1ccc(/C=N\Nc2nncn2N)cc1,active: 20.6 µM,–
O=C(NCC(c1ccco1)N1CCc2ccccc2C1)C(=O)Nc1ccccc1 (centres undefined),inactive,–
O=C(NNC(=O)C1COc2ccccc2O1)c1ccccc1O (centres undefined),inactive,–
O=C(C1=C(O)C(=O)N(CCN2CCOCC2)C1c1cccc(Br)c1)c1cccs1 (centres undefined),"inconclusive [rising, single point]",–
CCCc1ncc(CN2CCCC(C(=O)Nc3ccc(-c4cccc(OC)c4)cc3)C2)cn1 (centres undefined),"inconclusive [cytotoxic, partial curve]",–
O=S(=O)(c1cccc(-c2csc(N/N=C/c3ccco3)n2)c1)N1CCOCC1,"inconclusive [cytotoxic, single point]",–
COc1cc2c(cc1OC)C(=S)NC(C)(C)C2,"inconclusive [cytotoxic, partial curve, poor fit]",–
COc1ccc(C(CC(=O)N2CCCC2)c2c(OC)cc(OC)c3ccc(=O)oc23)cc1 (centres undefined),inactive,–
CCOc1ccc(Br)cc1C1=CC(=O)C[C@H](c2ccc(OC)cc2)C1,active: 5.8 µM,–

SMILES,Potency,"activity, negative = toxicity"
COc1ccc(CNc2cccc(C)n2)c(O)c1,inactive,–
CCOc1ccc(C)cc1S(=O)(=O)n1cnc2ccccc21,active: 13 µM,–
CC1=NN(c2ccc(C)c(C)c2)C(=O)/C1=C\C=C\c1ccc([N+](=O)[O-])o1,active: 16.4 µM,–
Cn1c(=O)c2cc(S(=O)(=O)NCCC(=O)Nc3ccc(Cl)cc3)ccc2n(C)c1=O,"inconclusive [cytotoxic, single point]",–
CCc1ccc(/C=C/c2c([N+](=O)[O-])c(=O)n(C)c(=O)n2C)cc1,"inconclusive [cytotoxic, single point]",–
COc1ccc(OC)c(NC(=O)c2nc(S(=O)(=O)Cc3ccccc3)ncc2Cl)c1,active: 3.66 µM,–
COc1ccc(NS(=O)(=O)c2cc(N/C(=N\S(=O)(=O)c3ccccc3)c3ccc(F)cc3)ccc2Cl)cc1,"inconclusive [cytotoxic, single point]",–
CC(C)(C)c1ccc(C2(C)NC(=O)N(CC(=O)Nc3ccc4c(c3)OCO4)C2=O)cc1 (centres undefined),"inconclusive [cytotoxic, single point]",–
COc1ccccc1-c1cccc(-c2nc(C(=O)Nc3nccs3)cc3c2[C@H](CCO)N(C(C)=O)C3)c1,"inconclusive [cytotoxic, partial curve]",–
CCCCc1cc(O)c(CCCC)c(O)c1,"inconclusive [cytotoxic, single point]",–
O=C(NCCCN1CCOCC1)c1cccc(S(=O)(=O)Nc2ccccc2Cl)c1,inactive,–
O=C(NCC(c1cccnc1)N1CCN(c2ccccc2F)CC1)OCc1ccccc1 (centres undefined),"inconclusive [cytotoxic, single point]",–
Fc1cc(Cl)ccc1NC1=NCCCCC1,inactive,–
Oc1ccccc1/C=N/NC(=S)NC1CC2C=CC1C2 (centres undefined),"inconclusive [cytotoxic, single point]",–
CC(C)/C(=N\NS(=O)(=O)c1ccc(Br)cc1)c1cccs1,"inconclusive [cytotoxic, partial curve]",–
Cc1ccc(NC(=O)c2cc(-c3cccs3)nc3ccccc23)nc1,active: 20.6 µM,–
COc1cc(C(=O)NCC(c2cccs2)N2CCOCC2)ccc1OCc1ccccc1 (centres undefined),inactive,–
Cc1cccc(Oc2ccc3c(c2)cc(C(=O)O)n3C)c1,inactive,–
Cc1ccc2nc(NCc3ccccc3)[nH]c2c1,active: 3.66 µM,–
Clc1ccc(CN2C3=NCCCN3c3ccccc32)c(Cl)c1,"inconclusive [cytotoxic, single point]",–
Cc1cccc(C#CC2=CC(=O)CC(C)(C)C2)c1,inactive,–
COc1ccc(-c2csc3ncnc(N4CCN(c5ccccc5Cl)CC4)c23)cc1,"inconclusive [cytotoxic, single point]",–
O=C(OCc1ccccn1)c1ccc(COc2ccc3ccccc3c2)o1,inactive,–
CC1=C(C(=O)N(C(C)C)C(C)C)CC(CC(=O)NCc2ccco2)C(=O)N1Cc1ccc(C(C)(C)C)cc1 (centres undefined),"inconclusive [cytotoxic, single point]",–
